# The other results are listed elsewhere or left out. For some assays here: At the low end of the ranking the order means little.
# Test system: RARa:RXRa
# Details: 270 nM : 90 nM RXRa, PBS pH 7.4, 2% milk, 0.02% Triton X-100, 1 mM DTT, BSA, 0.4 mg/ml salmon testes DNA; double strand, one strand shown
row,Sequence,binding signal (PBM z-score against 500 random probes)
1,GCACTATTAGTTGACTTTGGGCAACCGATACGACGCGCGATTGACAGCGTAGAATGAAGG,0.48
2,GCTCTTGTAGATCAGCAGGTTCAGAAAGCTGGCCAAGCGATTGACAGCGTAGAATGAAGG,0.45
3,GCTCTAGCAGGCCAGAGTGTCACTCAAGAGGTACGGGCGATTGACAGCGTAGAATGAAGG,0.14
4,GCACAGACAGGTGAGTGAAGGTAACTCACCTGGACGGCGATTGACAGCGTAGAATGAAGG,0.49
5,GCCCGAGTATGTTATGGGGCATTCAGGCAACGGTGAGCGATTGACAGCGTAGAATGAAGG,0.39
6,GCATCTCTAGGTAAGACTCAGTTCAGTTAAGAACGCGCGATTGACAGCGTAGAATGAAGG,0.5

# Molecular target: T1, RARb (Homo sapiens) (UniProt P10826)
# T1 sequence: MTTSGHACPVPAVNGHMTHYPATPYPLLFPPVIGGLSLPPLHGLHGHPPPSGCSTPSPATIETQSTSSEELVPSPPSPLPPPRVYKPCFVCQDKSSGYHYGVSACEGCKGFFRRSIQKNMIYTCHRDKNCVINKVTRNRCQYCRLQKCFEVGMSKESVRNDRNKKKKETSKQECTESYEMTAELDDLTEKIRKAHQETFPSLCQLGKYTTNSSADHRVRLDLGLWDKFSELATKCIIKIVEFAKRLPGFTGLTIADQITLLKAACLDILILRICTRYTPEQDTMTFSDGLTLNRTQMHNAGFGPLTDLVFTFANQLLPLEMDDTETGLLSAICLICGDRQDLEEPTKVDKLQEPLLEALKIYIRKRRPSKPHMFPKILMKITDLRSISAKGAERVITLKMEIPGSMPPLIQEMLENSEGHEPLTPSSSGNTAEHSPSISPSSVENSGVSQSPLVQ
# Details: 270 nM, no RXRa, PBS pH 7.4, 2% milk, 0.02% Triton X-100, 1 mM DTT, BSA, 0.4 mg/ml salmon testes DNA; double strand, one strand shown
row,Sequence,binding signal (PBM z-score against 500 random probes)
1,GCATCTGGCATATGTTCACTCCATGTACCACAGATAGCGATTGACAGCGTAGAATGAAGG,-0.07
2,GCTAACGAATGATCTTTCTAATGTGTTGTTGAATTCGCGATTGACAGCGTAGAATGAAGG,0.02
3,GCAGCAGTGAGGACCAATGGGCAGTCCAGGAGGAAAGCGATTGACAGCGTAGAATGAAGG,0.28
4,GCCATCCTGATTCCAAAGCCTGGCAGAGACACAACCGCGATTGACAGCGTAGAATGAAGG,0.1
5,GCAGCCTCCTGTTGGGTGGTCTGGTCCACCTCCTCAGCGATTGACAGCGTAGAATGAAGG,-1.21
6,GCAAGGAATGTAATCTAACTCTGTATTCAAAGAAGAGCGATTGACAGCGTAGAATGAAGG,-0.36
7,GCCTGCCTCAGCCTCCCGAGTAGCTGGGATTACAGAGCGATTGACAGCGTAGAATGAAGG,-0.7
8,GCATCTGCCTTGCTCTTTCTACCTTTCAGTGTCTTTGCGATTGACAGCGTAGAATGAAGG,-0.26

# — paper PMC6555819
